Each structure is given as a SMILES string. Entries after “also recorded” stand apart in the source; their conditions may differ. Certain results were filed several times, with different values. The list is limited to them. How the calls were made is not given here. An entry can have further records. The records of an entry differ for a reason that is not stated; they may come from other doses, times, organisms or constructs than stated. Marks in square brackets tell the records apart. Letters hold for one entry only. Signs of the kind (2×) say how often a value occurs here.

The data set deals with CCRIS mutagenicity, Ames/micronucleus/aberration tests. In words: CCRIS mutagenicity studies.

On to `O=[N+]([O-])c1cccc2ccccc12`, for which, under “Test System: E. COLI, Strain/Indicator: WP2 UVRA, Metabolic Activation: HAMSTER, LIVER, S-9, Method: STANDARD PLATE”, the mutagenic call was “inactive; negative (2×) and active; positive”.

With `CC(Cl)(Cl)Cl`, under “End Point: In vitro chromosomal aberrations, Test System: Chinese hamster lung (CHL/IU) cells, Metabolic Activation: None”, the mutagenic call is “inactive; negative (structural changes and ploidy showed weak response without dose respon; also recorded: inactive; negative. authors considered overall results for 1,1,1-trichloroethane to be equ; also recorded: active; positive (ploidy). authors considered overall results for 1,1,1-trichloroethane”.

Turning to `Oc1ccc(Cl)cc1Cc1cc(Cl)ccc1O`, the mutagenic call is, setting by setting: (Test System: AMES SALMONELLA TYPHIMURIUM, Strain/Indicator: TA100, Metabolic Activation: HAMSTER, LIVER, S-9, AROCLOR 1254 (30%), Method: PREINCUBATION) “inactive; negative [3 to 166 µg/plate] and active; positive [3.3 to 200 µg/plate]”; (Test System: AMES SALMONELLA TYPHIMURIUM, Strain/Indicator: TA100, Metabolic Activation: RAT, LIVER, S-9, AROCLOR 1254 (30%), Method: PREINCUBATION) “inactive; negative [1 to 100 µg/plate] and active; positive [10 to 200 µg/plate]”.

Turning to `ClC(Br)Br`, the mutagenic call (End Point: IN VITRO CHROMOSOMAL ABERRATIONS, Test System: CHINESE HAMSTER LUNG FIBROBLAST CELLS (CHL/IU), Metabolic Activation: NONE) was “active; positive (ploidy) and inactive; negative”; the mutagenic call (End Point: IN VITRO CHROMOSOMAL ABERRATIONS, Test System: CHO-LB CELLS, Metabolic Activation: RAT, LIVER, S-9, AROCLOR 1254) is “active; positive and inactive; negative”.

Consider `[Cl][Cr]([Cl])[Cl]`, for which the mutagenic call by setting is: (Test System: MOUSE LYMPHOMA CELLS, Strain/Indicator: L5178Y TK+/-, Metabolic Activation: NONE, Method: TFT RESISTANCE) “inactive; negative and active; positive”; (Test System: MOUSE LYMPHOMA CELLS, Strain/Indicator: L5178Y TK+/-, Metabolic Activation: RAT, LIVER, S-9, AROCLOR 1254, Method: TFT RESISTANCE) “inactive; negative and active; positive”.

Consider `N[C@@H](Cc1ccc(N(CCCl)CCCl)cc1)C(=O)O`, for which the mutagenic call by setting is: (End Point: In vivo chromosomal aberrations, Test System: Bone marrow cells, Species: Mouse, Strain/Sex: C57B1/6 / Female (wild type), Route: Oral (gavage)) “inactive; negative and active; positive”; (End Point: In vivo chromosomal aberrations, Test System: Splenocytes, Species: Mouse, Strain/Sex: C57B1/6 / Female (wild type), Route: Oral (gavage)) “active; positive; also recorded: active; positive. table ii in title says 26-wk but text says 13-wk treatment time”.

In the case of `O=C1C=Cc2ccccc2C1=O`, the mutagenic call (Test System: AMES SALMONELLA TYPHIMURIUM, Strain/Indicator: TA98, Metabolic Activation: NONE, Method: PREINCUBATION) is “active; positive [study A] and inactive; negative [study B] and inactive; negative [study C]”.

Values taken from PubChem BioAssay AID1259407 (Chemical Carcinogenesis Research Information System (CCRIS), 2018).
